Experimental data: PMC6919601, “Identification of Plasmodium dipeptidyl aminopeptidase allosteric inhibitors by high throughput screening” (PLoS ONE, 2019)
Among all 110,000 compounds or so, about 230 (0.21%) showed an effect of 50% or more. This is one part of the list.

Each molecule was assayed against DPAP1 (Plasmodium falciparum, UniProt Q8IIJ9) (assay: primary screen, percent inhibition; read by cleavage of a fluorogenic dipeptide substrate; higher = more effect of the substance).
Parameters: species or system P. falciparum D10 trophozoite lysates; single well
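Further: 30 min substrate incubation versus DMSO and 10 µM JCP410 controls.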

Sequence of DPAP1 (Q8IIJ9 whole entry, looked up): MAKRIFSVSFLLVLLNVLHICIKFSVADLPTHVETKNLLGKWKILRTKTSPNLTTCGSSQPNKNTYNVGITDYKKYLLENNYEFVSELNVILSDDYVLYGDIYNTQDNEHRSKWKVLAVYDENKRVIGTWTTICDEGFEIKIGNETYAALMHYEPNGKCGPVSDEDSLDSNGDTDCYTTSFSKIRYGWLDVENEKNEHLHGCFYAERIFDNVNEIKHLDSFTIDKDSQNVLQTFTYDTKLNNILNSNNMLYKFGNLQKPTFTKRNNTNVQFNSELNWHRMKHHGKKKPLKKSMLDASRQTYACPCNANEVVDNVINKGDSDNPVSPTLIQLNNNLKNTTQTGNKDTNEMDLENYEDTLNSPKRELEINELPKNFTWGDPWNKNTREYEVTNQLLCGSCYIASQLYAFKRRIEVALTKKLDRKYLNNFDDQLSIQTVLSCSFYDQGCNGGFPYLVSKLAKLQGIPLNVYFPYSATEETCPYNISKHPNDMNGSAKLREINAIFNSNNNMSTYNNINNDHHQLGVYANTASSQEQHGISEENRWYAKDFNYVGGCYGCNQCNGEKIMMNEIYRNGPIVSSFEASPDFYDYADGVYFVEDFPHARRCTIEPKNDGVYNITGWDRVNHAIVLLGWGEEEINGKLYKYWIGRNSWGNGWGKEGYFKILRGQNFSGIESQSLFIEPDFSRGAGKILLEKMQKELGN

| SMILES | % Inhibition @ 10 uM |
| --- | --- |
| Cc1nc2c3ccccc3nc(SCC(=O)N3CC(C)CC(C)C3)n2n1 (centres unmarked) | -4.75% |
| COc1cccc2c3c(c[n+](C)c12)sc1cc(F)ccc13 | 19.8% |
| CN(C)CCNC(=O)CCCN1C(=O)c2ccccc2C1=O | 1.91% |
| Cc1cc(C)c2c(n1)sc1c(=O)oc(C)nc12 | -0.13% |
| Cc1cc(C(=O)Nc2cccc(C(=O)O)c2)oc1C | 4.88% |
| Cc1c(CNCC(C)c2ccccc2)c(C(=O)O)c(C)n1Cc1c(F)cccc1Cl (centres unmarked) | -7.6% |
| O=C(CN1CCCCC1)Nc1c(Cl)cc(Cl)cc1Cl | 1.02% |
| Cc1cccc(NC(=O)c2ccccc2Cl)c1 | -3.71% |
| O=C(c1nc2ncccn2n1)N1CCc2ccccc2C1 | -1.72% |
| COc1cc(CNC(=O)CSc2nnc(C)c3c(C)n(-c4ccccc4)nc23)cc(OC)c1OC | -2.32% |
| CCCCNC(=O)CCn1ccc2cc(S(=O)(=O)N3CCCC3)ccc21 | 1.11% |
| COc1ccc(CN2CCc3c([nH]c4ccccc34)C2)cc1Br | 0.317% |
| O=C(NC(N1CCOCC1)(C(F)(F)F)C(F)(F)F)c1ccccc1 | -3.69% |
| CN(C)CCN(C)C1CCCCCCC1 | -1.5% |
| COc1ccc(OC)c(C2C3=C(O)CCCC3=NC(C)=C2C(=O)Nc2cccc(C)n2)c1 (centres unmarked) | -2.53% |
| Clc1ccccc1OCCn1cnc2ccccc21 | 0.162% |
| O=C(NCCc1ccccc1)C1c2ccccc2C(=O)N1Cc1ccc(F)cc1 (centres unmarked) | -0.0508% |
| COc1ccc(N(CC(=O)N2CCCC2)S(=O)(=O)c2ccccc2)cc1OC | 2.42% |
| CCOc1ccc(CNCc2c(C(=O)O)n(Cc3ccccc3F)c3cc(OC)ccc23)cc1OC | -3.46% |
| CCNC(=S)N(CCc1c(C)[nH]c2ccc(OC)cc12)Cc1cccs1 | 4.14% |
| CCCC(C)NC(=O)c1c(-c2ccccc2Cl)noc1C (centres unmarked) | 3.25% |
| O=C(CN(c1cccc(Cl)c1)S(=O)(=O)c1ccccc1)N1CCN(Cc2ccccc2)CC1 | -2.03% |
| CCn1c(C(=O)O)c(CNCCc2ccco2)c2ccc(OC)cc21 | -9.17% |
| CC(C)C(=O)Nc1cccc(C(=O)Nc2ccc(C(=O)O)cc2)c1 | 0.727% |
| Cc1ccc(-n2nc(C)c(/C=N/c3ccc4c5c(cccc35)C(=O)N(C)C4=O)c2O)c(C)c1 | -4.12% |

| SMILES | % Inhibition @ 10 uM |
| --- | --- |
| CC(C)(C)NC(=O)C(Cc1ccccc1)NS(=O)(=O)c1cccc2nsnc12 (centres unmarked) | 3.63% |
| COc1ccc(-n2c(C)nnc2SCc2nc(-c3ccc(Cl)cc3)no2)cc1 | 2.89% |
| CCOc1cc(Br)c(C(C)NC(C)=O)cc1OCC (centres unmarked) | 3.8% |
| O=S1(=O)CCC(NC2CCS(=O)(=O)C2)C1 (centres unmarked) | -0.239% |
| Cc1ccnc(NS(=O)(=O)c2ccc(NC(=O)C3C4C=CC(C4)C3C(=O)O)cc2)n1 (centres unmarked) | -7.4% |
| COc1ccc(S(=O)Cc2ccc(C(=O)NC(C)C)o2)cc1 (centres unmarked) | -1.86% |
| CCO/C(O)=C1\C(C)=NC2=C(C(=O)CCC2)C1c1ccc(Br)s1 (centres unmarked) | -1.75% |
| O=C(c1ccc(Br)c(S(=O)(=O)N2CCCCC2)c1)N1CCCCC1 | 1.87% |
| COc1ccc(C(=O)Nc2ccc(S(=O)(=O)NC(C)=O)cc2)cc1 | -5.34% |
| O=C(O)CSc1nnc(COc2ccc3c(c2)OCO3)n1-c1ccccc1 | 1.15% |
| O=S1(=O)C=C(N2CCCCC2)CC1 | 2.26% |
| Cc1nc2ccccc2n1S(=O)(=O)c1cccc(Cl)c1Cl | 0.736% |
| COc1ccccc1OCC(=O)O | -3.41% |
| CC1CN/C(=C\C(=O)CCc2ccccc2)C(=O)N1 (centres unmarked) | -4.84% |
| COc1cc(OC)cc(C(=O)NCCC(C)C)c1 | -6.05% |
| O=c1sc2cc(Br)ccc2n1CCO | -4.58% |
| COc1ccc2c(Cl)c(C(=O)Nc3ccc(C(N)=O)cc3)sc2c1 | 2.68% |
| COc1ccc(CNC(=O)Cn2ncn3c(cc4sccc43)c2=O)cc1 | -3.35% |
| COC(=O)c1ccc(/C=c2\sc3n(c2=O)C(N)=C(C#N)C(c2ccc(C(=O)OC)cc2)C=3C#N)cc1 (centres unmarked) | 8.06% |
| CC[C@H](NC(=O)[C@@H](NC(=O)c1ccc(-c2ccccc2Cl)c(Cl)c1)C1CCCCC1)C(=O)c1nnc(-c2ccccc2)o1 | -0.207% |
| CC12C=CC(C)(O1)C1C(=O)N(c3cccc(C(F)(F)F)c3)C(=O)C12 (centres unmarked) | -3.46% |
| COc1ccc(CN2CC(C(=O)N3CC(C)CC(C)C3)CC2=O)cc1 (centres unmarked) | -0.0542% |
| O=C(C1CC1)N1CCC(c2c[nH]c3ccccc23)(c2c[nH]c3ccccc23)CC1 | -2.37% |
| O=C(CC(c1ccccc1)c1ccccc1)N1CCc2ccccc2C1 | -8.7% |
| CCn1c2c(c3cc(Br)ccc31)CCC/C2=N\O | -0.446% |

| SMILES | % Inhibition @ 10 uM |
| --- | --- |
| Nc1cc(NC(=O)C23CC4CC(CC(C4)C2)C3)cc(Oc2ccccc2)c1 | 3% |
| COc1ccc(OCC2c3cc(OC)c(OC)cc3CCN2C(=O)C(C)Oc2ccccc2)cc1 (centres unmarked) | 4.37% |
| CCOc1c(Cl)cc(/C=C2/SC(=O)N(CC)C2=O)cc1OC | 1.61% |
| CC(C)(C)c1ccc(S(=O)(=O)NCC(=O)Nc2sc3c(c2C(N)=O)CCCCC3)cc1 | 0.145% |
| CC1CCCCN1S(=O)(=O)c1ccc(C(=O)Nc2cccc(Br)c2)cc1 (centres unmarked) | -1.59% |
| Cc1ccc(NCC(O)CN2C(=O)c3ccccc3C2=O)cc1 (centres unmarked) | -0.992% |
| CC(C)N1C(=O)S/C(=C/c2ccc3c(c2)OCCO3)C1=O | 5.05% |
| CCOC(=O)c1cnc2nc(NCc3cccc(C)c3)nn2c1O | -6.28% |
| CC1CC2=C(CC1CN1CCN(C)CC1)C(C)(C)CCC2 (centres unmarked) | 3.76% |
| Cc1ccccc1Cn1c(C)c(CNCCc2ccccc2)c(C(=O)O)c1C | 1.41% |
| Cc1ccc(S(=O)(=O)N(CC(=O)N2CCOCC2)c2ccc(Cl)c(C(F)(F)F)c2)cc1 | -3.95% |
| CN(Cc1ccccc1)c1nc(-c2ccco2)cc(C(F)(F)F)n1 | 1.07% |
| CCN1C(=O)S/C(=C/c2cc(C)n(-c3ccc(S(N)(=O)=O)cc3)c2C)C1=O | 5.77% |
| O=C(OCCCc1nc2ccccc2[nH]1)c1cccc(F)c1 | -7.58% |
| Cc1cc(NC(=O)c2cc(-c3ccccc3O)on2)no1 | -7.15% |
| COc1ccc(C(=O)OCC(=O)n2c(C)c(C)c3ccccc32)cc1 | -3.33% |
| Cc1cc(C)c2nc3s/c(=C\c4ccc(Cl)cc4)c(=O)n3c2c1 | 4.57% |
| COc1ccc(/C=C(\NC(=O)c2ccccc2)C(=O)Nc2ccc(F)cc2)cc1OC | -7.96% |
| COc1ccc(OC)c(C2CC(=O)NC(SCC(N)=O)=C2C#N)c1 (centres unmarked) | 4% |
| Cc1cccc(C2C3=C(CC(C)(C)CC3=O)N=C3c4ccccc4C(=O)C32)c1 (centres unmarked) | -3.63% |
| COc1cc2c(cc1OC)C(C(=O)NCc1ccccn1)C(c1cccnc1)N(C)C2=O (centres unmarked) | -0.503% |
| COc1ccc(C2CC(=O)NC3=C2C(=O)CCC3)c(OC)c1 (centres unmarked) | -9.42% |
| Cc1ccc(-n2nc3c(N4CCC(C(=O)N5CCC(C(N)=O)CC5)CC4)nnc(C)c3c2C)cc1 | 3.08% |
| COCCCNC(=O)/C(C#N)=C/C1=Cc2ccccc2OC1 | -1.33% |
| Cc1ccccc1C1CC(c2ccc(Cl)cc2OC(F)F)Nc2ncnn21 (centres unmarked) | 1.86% |

| SMILES | % Inhibition @ 10 uM |
| --- | --- |
| COc1ccc(C2=NC(c3sccc3C)NC(c3ccccc3O)C2)cc1 (centres unmarked) | -0.72% |
| CC1(C)C(c2ccc(Cl)cc2)=[N+]([O-])C(C)(C)N1O | -3.41% |
| CCOc1cc(/C=C2\C(=N)N3N=C(S(=O)(=O)CC)SC3=NC2=O)ccc1O | -3.35% |
| CC1=NN(c2nc3ccccc3s2)C(=O)C1CCC(C)C (centres unmarked) | -3.33% |
| COCCN1C(=O)c2ccccc2C(C(=O)Nc2cc(C)ccn2)C1c1c[nH]c2ccccc12 (centres unmarked) | -3.41% |
| CC(C)C(NS(=O)(=O)c1cccc2nsnc12)C(=O)Nc1ncc(Br)s1 (centres unmarked) | -0.465% |
| Brc1ccc(OCCN2CCCCC2)cc1 | 3.05% |
| CCOC(=O)c1[nH]c2ccc(OC)cc2c1NC(=S)N1CCC(N2CCCCC2)CC1 | 1.68% |
| O=C(O)C1CSC2(CCC(c3ccccc3)CC2)N1 (centres unmarked) | -12.6% |
| Cc1ccc(CN(C(=O)c2ccc(C(C)(C)C)cc2)C2CCS(=O)(=O)C2)o1 (centres unmarked) | -1.32% |
| CN(Cc1ccccc1)C(=O)c1ccc(Cl)cc1Cl | -3.82% |
| COc1cc(OC)c(OC)cc1C=C(C#N)C#N | 0.0345% |
| O=C(NCc1ccc2c(c1)OCO2)c1cc(-c2ccc(Cl)s2)nc2ccccc12 | -4.86% |
| CCc1ccc(-c2cn3nc(N4CCC(C(=O)NC5CCCC5)CC4)sc3n2)cc1 | -1.6% |
| Cc1ccccc1/C=c1/sc2n(c1=O)C(N)=C(C#N)C(c1ccccc1C)C=2C#N (centres unmarked) | -1.68% |
| CC(C)CC(NC(=O)c1cccc(NC(=O)NCc2cccnc2)c1)C(=O)NCC#N (centres unmarked) | -7.36% |
| CC(Oc1ccc(C(=O)NCc2ccccc2)cc1)C(=O)O (centres unmarked) | 0.163% |
| CC(c1ccccc1)n1c(=O)ccn(CCOc2ccc(Cl)cc2)c1=O (centres unmarked) | 0.883% |
| CN1C/C(=C\c2ccc3c(c2)OCO3)C(=O)/C(=C/c2ccc3c(c2)OCO3)C1 | 1.42% |
| O=C(O)c1ccc(N2C(=O)CC(N3CCC(Cc4ccccc4)CC3)C2=O)cc1 (centres unmarked) | 3.24% |
| O=C(NCc1ccco1)C1CC(=O)N(CCc2ccccc2)C1 (centres unmarked) | -1.79% |
| CC1CCc2cc(F)ccc2N1C(=O)c1cnn(C)c1 (centres unmarked) | -3.04% |
| CCN(CC)CCCNC(=O)C1CCCN(c2nn3c(=O)cc(C)nc3s2)C1 (centres unmarked) | -0.281% |
